Test results reported in the RNAGym collection of RNA variant scans (doi:10.7554/elife.90254).
Read counts are not given, so values of variants with three or more changes are uncertain.

B1: LINE1-mini (parent)
chain: GGCAGAGCUCAACACAGCGUGGCAAAGUGGCUGUGGCUAGACUGCC

Variants of: B1
Experiment: self-cleavage, relative activity (ratio to wild type); higher = more cleavage; in vitro, sequencing; the parent is a self-cleaving ribozyme

Variant	self-cleavage
G2C U9A C13U G29A	0.02
G2C U9A A41U	0.01
G2U A6C C18U C23U	0.02
G2C U20A C45A	0.02
G2C U20A U28C G29C	0.09
G2C G22U G33U	0.05
G2C G29U C37U C46A	0.06
G2C U20C C31A	0.02
G2C U20C C31G	0
G2C G21U G29A U34C	0.12
G2C U43G C45U	0.03
G2C U20C G29C C42G	0
G2U A4U A12C	0.01
G2C G21U C37A	0.17
G2U A6G C8U	0.05
G2U A6G G17C U34G	0.03
G2C U9A G36A A39C C42U	0.38
G2C G19C G22U	0.04
G2U A4C G17C G30A A39C	0.02
G2C U9G C15A A25C	0.03
G2C U9C A11G G22U	0.06
G2C G27C A39C	0.01
G2C G21A G22A C42U C45A	0.1
G2C G27A U43C	0.01

Variant	self-cleavage
G2C U9A C10G A14C C15A C31A G36C	0.01
G2C G22U G29C G30U	0.04
G2C U20A A39U	0.02
G2C G21U C42G C45G	0.16
G2U A4C G21C	0.08
G2U A4C U28G	0.03
G2U A6C G30A A41U U43G	0.02
G2C U20A G29C	0.06
G2C G21A A24C	0.15
G2C G33U A41C	0.05
G2C G27C G29C	0.16
G2U A6U U20A C31A	0.06
G2U A4G C23G C37U	0.06
G2C G21U C31U	0.08
G2C G27U C45U	0.15
G2U A6C G17U	0.03
G2U A6G U20C G33U	0.02
G2U A4G A26C G30C C37U U38G	0
G2U A4C C15U C46A	0.01
G2C G19U G35U G40C U43A	0
G2U A11C G30A G33U U43C C46U	0.01
G2U A4G C15A C18G G36C	0.07
G2U A4U C31U U32C	0.04
G2U A4U C23A G30U U34G	0.02

Variant	self-cleavage
G2C U9C A11U G19C C23G G30U	0
G2U A4U G21U C37U	0.05
G2C U20C C23A G29A C42G G44C	0.13
G2C U9A G21A U28A C31A	0.47
G2C U9A C13U C37A G44A	0.08
G2C U9A C23A C31A	0.05
G2C U9G G19A	0.22
G2C U34C G36A	0.14
G2C U34C G36C	0.06
G2C U28G U34A	0.03
G2C G21C C42G	0.01
G2C G21U G35U G36C A39C C46U	0.06
G2U A6G C18U G19U	0.11
G2U A4U A12G A25C U32G A41C	0.04
G2C U9A C42U	0.01
G2C G21A G22A A24G C31A	0.23
G2U A6C A26C G40C U43A C46A	0.01
G2C U9A C37G C42A	0.09
G2C G19C A24C G44U	0.1
G2U A4C C42A	0.01
G2C G21C G29C	0.11
G2C U9A G27U	0.25
G2C U34G U38G	0.04
G2U A4U C18U A25U	0.27

Variant	self-cleavage
G2C U9G A14U	0.05
G2U A6U G19C U32A G40C	0.16
G2C U9G C45U C46U	0.22
G2U A6C U20A G22C	0.02
G2C G22A C23A	0.2
G2C G36A A39G	0.95
G2C G21U G36C	0.04
G2C G27U U43G	0
G2C G21U G33U A39C	0.06
G2C U32A U38A	0.01
G2U A4C U9C A11G A14C G19C C23A G30A	0.01
G2U A4G G17A U20A	0.05
G2U A11C C15G G36A U43A	0
G2C G27C G30A	0.27
G2U A4U A6G G7A G19A	0.06
G2C G21U U28G U34C	0.11
G2U A6C C8G U28C	0.02
G2C U9A A12U G35A	0.2
G2U A6U A12G C18U A39C	0.07
G2C G21A A25C G30C G35C	0.08
G2C G22U A24U	0
G2C U20C A24C C31A G44A	0.03
G2U A6G C18U C45U	0.01
G2U A4G C8U U9A A12C A24G	0.04

Variant	self-cleavage
G2U A6U C23G C37G C46G	0.1
G2C G19U G40A U43G C46A	0.01
G2C G19C A24G U38G	0.01
G2C U20A G36A U38C G44A	0.02
G2C U34G G36A G40A	0.1
G2U A4U C10A A25G U38G A41G	0.01
G2C G30U U38G	0.37
G2U A6U G7A G29U	0.03
G2U A4G C37U	0.96
G2U A4U G29A	0.03
G2C G29A G35A C42A	0.14
G2U A6G C10U A16C U28G G44U	0.01
G2C U32A G33U G36C U38G G40U	0.11
G2U A6C G21U	0.05
G2U A4U G21U U34G	0.02
G2U A4C C37A	0.15
G2C U9C A11G G22U G29A U38C A41G	0
G2C U9C G19C G33A C37A A39C G44A	0.01
G2C U9G G40A C45A	0.05
G2U A11C A12U	0.01
G2U A6U G36A	0.21
G2U A4C C10U A14C U38A C42A	0.02
G2U A6C C23A	0.04
G2C G22C U28C G29C	0.11

Variant	self-cleavage
G2C G27U G33C C37A	0.02
G2U A6C C10A	0.01
G2U A4U C18U G22C G27A	0.24
G2C G19U G29U	0.16
G2C U34C C46A	0.01
G2C G22A C31U	0.03
G2U A6G C37A	0.05
G2U A4G A6C U9G G19C A25C G30U	0.12
G2C G22U G27C C37A	0.01
G2C G33A C42U C46G	0.08
G2C U9G C15A U28G G36C A39C	0.02
G2C G30U U38A A41U	0.27
G2U A6U G21A C42U C46U	0.06
G2C U20A A24C G36U G44C	0.02
G2C U9G C31A	0.2
G2C G35U G44U	0.11
G2C G21U A41G	0.24
G2C U34A A41G	0.09
G2C G36U C42G	0.02
G2C U9C G21A	0.07
G2C G27A G30A	0.08
G2U A6U U9A C10G G19U A25C G27U G30A U32A	0
G2U A11C G19U C45A	0.01
G2C G21U A24U A39U	0.28

Variant	self-cleavage
G2U A11C U28C C46G	0.01
G2U A4C A16U A39U G44C C46U	0
G2U A4G G19U A26G G33U	0.03
G2U A6C G7U A24G C42U G44A	0.08
G2C U9A A16C U38A	0.03
G2U A6G C10U G17A C31G G36A G44U	0.01
G2U A6G G7A A26U G30C	0.04
G2U A4G A11G A26C G33A G35U	0
G2C U28G C31A G40U	0.01
G2C G21U G27A U28G G29U	0.08
G2U A11C U20A G35U	0.01
G2U A4U A11G A14U C45U	0.01
G2U A11C C23A U38G	0
G2U A4C G19C C31U G36U U43G	0
G2C G19U U43C	0.05
G2C G21A U28G	0.04
G2C U20G C31A	0.02
G2C G29U G35C	0.1
G2C U9A C18A G36A A41U	0.03
G2C G22C C31A	0.18
G2C G19C G21A C23U C37G	0.01
G2C U9C A12U U34G	0.01
G2C G22C A26C A41G	0.02
